{"source": "PubChem BioAssay AID504832", "about": "(National Center for Advancing Translational Sciences (NCATS), 2011)", "note": "About 18,000 (5.8%) of roughly 310,000 compounds were called active. Inconclusive results, whose numbers are uncertain, are shown with a selection of clear calls. Calls come from the whole dose curve; as a rule, active = well fitted inhibition curve with a large enough effect; inconclusive = small, poorly fitted or top-dose-only effect, or another doubt; inactive = no such curve, though single readings can be large or run the other way. No potency is given beside an inconclusive call; the fits are too rough. % is set by controls: 0 for no effect and ±100 for the full control effect; potency is the fitted concentration of half-maximal effect; tags give direction and shape of the fitted curve.", "data": [{"experiment": "Primary qHTS for delayed death inhibitors of the malarial parasite plastid, 48 hour incubation", "settings": "P. falciparum luciferase growth in erythrocytes; series mostly up to 28.7 µM; activity change, negative = inhibition: at the top concentration", "procedure,_shortened": "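Compounds are pin-transferred into medium, infected erythrocytes (2% hematocrit, 0.1% parasitemia final) are added, and plates sit one parasite generation at 37 C in 5% CO2. Detection reagent is then added and luminescence measured.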", "values": [{"smiles": "Cc1nnc(SCc2cccc([N+](=O)[O-])c2)[nH]c1=O", "activity change, negative = inhibition": "inactive: 15.5%"}, {"smiles": "O=C(O)CC/C(=N\\NC(=O)c1ccncc1)c1ccccc1", "activity change, negative = inhibition": "inactive: -13.8%"}, {"smiles": "Cc1c(C(=O)N2CCN(CCc3ccccn3)CC2)oc2ccc(F)cc12", "activity change, negative = inhibition": "inactive: 17.8%"}, {"smiles": "CC(=O)NCCOC(=O)Nc1cccnc1", "Potency": "active: 1.85 µM"}, {"smiles": "COC(=O)c1ccc(OCC2c3cc(OC)c(OC)cc3CCN2C(C)=O)cc1", "note": "(configuration not stated)", "Potency": "inconclusive [inhibitor, partial curve, poor fit]"}, {"smiles": "CCc1sc(C(=O)N2CCN(CC(=O)Nc3cccc(F)c3)CC2)cc1C", "activity change, negative = inhibition": "inactive: 4.46%"}, {"smiles": "COC(=O)C1=C(c2ccc3ccccc3c2)C[C@@H]2CC[C@H]1N2C(=O)N1CCC(C)CC1", "Potency": "active: 9.28 µM"}, {"smiles": "CC[C@@]1(O)C(=O)OCc2c1cc1n(c2=O)Cc2cc3c([N+](=O)[O-])cccc3nc2-1", "Potency": "active: 8.49 µM"}, {"smiles": "CS(=O)(=O)c1ccc([C@@H](O)[C@@H](COC(=O)CN)NC(=O)C(Cl)Cl)cc1", "Potency": "inconclusive [inhibitor, single point]"}, {"smiles": "CSCCC(NC(=O)COc1ccccc1)C(=O)N(C)CC(=O)Nc1ccc(C)cc1", "note": "(configuration not stated)", "Potency": "inconclusive [inhibitor, single point]"}, {"smiles": "CNC(=S)Nc1cccc(Cl)c1C", "activity change, negative = inhibition": "inactive: 5.34%"}, {"smiles": "COc1cccc(CNCCO)c1OCc1ccccc1Cl", "Potency": "inconclusive [inhibitor, single point]"}, {"smiles": "C=CCN(c1ccccc1)S(=O)(=O)c1cccc(C(=O)N2CCN(c3ncccn3)CC2)c1", "Potency": "inconclusive [inhibitor, single point]"}, {"smiles": "Cn1c(SCC(=O)c2cc(Cl)c(Cl)s2)nnc1-c1ccco1", "activity change, negative = inhibition": "inactive: -44.8%"}, {"smiles": "COc1ccc2nc(N3CCCC(C(=O)NCCCN4C(C)CCCC4C)C3)sc2c1", "note": "(configuration not stated)", "activity change, negative = inhibition": "inactive: 22.3%"}, {"smiles": "CCC1(c2ccc(OC)cc2)NC(=O)N(CC(=O)N2CCc3ccccc32)C1=O", "note": "(configuration not stated)", "Potency": "inconclusive [inhibitor, single point]"}, {"smiles": "COc1ccc(Nc2cc(C)c3c(O)cccc3n2)cc1", "Potency": "active: 2.33 µM"}, {"smiles": "O=[N+]([O-])c1ccccc1Nc1c2ccccc2nc2ccccc12", "Potency": "inconclusive [inhibitor, partial curve, poor fit]"}, {"smiles": "COc1ccc(-c2cn3cccnc3n2)cc1NC(=O)Nc1cc(C)ccc1C", "Potency": "inconclusive [inhibitor, single point]"}, {"smiles": "CSc1nsc(SCc2ccc(F)cc2)n1", "activity change, negative = inhibition": "inactive: 11.6%"}, {"smiles": "Cc1ccc(NC(=O)CSc2nc(-c3cccs3)nc3cc(=O)[nH]n23)cc1C", "Potency": "inconclusive [inhibitor, single point]"}, {"smiles": "Cc1ccnc(NC(=O)CCC(=O)N(CC(=O)NCc2ccccc2)c2ccc3c(c2)OCO3)c1", "Potency": "inconclusive [inhibitor, single point]"}, {"smiles": "Cc1ccc(C(=O)N2CCC(n3nccc3NC(=O)c3ccccc3C)CC2)cn1", "Potency": "inconclusive [inhibitor, full curve, poor fit]"}, {"smiles": "CCN(CC(=O)Nc1sc2c(c1C#N)CCCC2)Cc1nc2ccccc2c(=O)[nH]1", "Potency": "inconclusive [inhibitor, partial curve, poor fit]"}, {"smiles": "Nc1nc(CSc2nnc(-c3cccc(F)c3)n2-c2ccccc2)nc(N2CCOCC2)n1", "activity change, negative = inhibition": "inactive: 8.54%"}, {"smiles": "Cc1ccc(C)c(N2CCN(C(=O)C3CCN(c4nc(C)cc(C)n4)CC3)CC2)c1", "Potency": "inconclusive [inhibitor, full curve, poor fit]"}, {"smiles": "C#CCOCCOCCOCCNc1nc(N2CCN(C(=O)CCCCCCCCCCNC(=O)Cn3cc(CCCCCN)nn3)CC2)nc(N2CCN(C(=O)CCCCCCCCCCNC(=O)[C@@H](CCC(=O)O)n3cc(CCCCCN)nn3)CC2)n1", "Potency": "active: 13.1 µM"}, {"smiles": "O=C(COC(=O)/C=C/c1ccccc1)Nc1ccc2c(c1)OCCO2", "Potency": "inconclusive [inhibitor, single point]"}, {"smiles": "CCOC(=O)NCc1ccc(S(=O)(=O)Nc2ccc(C)cc2)cc1", "Potency": "inconclusive [inhibitor, single point]"}, {"smiles": "CCCCN1C(=O)C(O)(CC(=O)c2c(C)n[nH]c2C)c2cc(Br)ccc21", "note": "(configuration not stated)", "Potency": "inconclusive [inhibitor, single point]"}, {"smiles": "Cn1cccc1Cc1nnc(SCC(=O)Nc2ccccc2F)n1CCc1ccccc1", "Potency": "active: 13.1 µM"}, {"smiles": "COc1ccc(CN(C(=O)c2ccco2)c2ccc(Br)cc2)cc1OC", "Potency": "inconclusive [inhibitor, partial curve]"}, {"smiles": "Cc1ccccc1NC(=S)NC(=O)c1cncc(Br)c1", "activity change, negative = inhibition": "inactive: 2.84%"}, {"smiles": "O=C(NCc1ccncc1)c1cccc(S(=O)(=O)N2CCc3ccccc32)c1", "Potency": "inconclusive [inhibitor, single point]"}, {"smiles": "Cc1ccc(N(C(=O)c2csnn2)C(C(=O)NC(C)(C)C)c2cccs2)cc1", "note": "(configuration not stated)", "Potency": "inconclusive [inhibitor, partial curve]"}, {"smiles": "Cc1cc(Cl)ccc1OC(C)C(=O)Nc1ccc(S(=O)(=O)Nc2cnc3ccccc3n2)cc1", "note": "(configuration not stated)", "Potency": "inconclusive [inhibitor, single point]"}, {"smiles": "O=C(NCc1ccccc1)C(c1cccnc1)N(C(=O)c1csnn1)c1ccc(F)cc1", "note": "(configuration not stated)", "Potency": "inconclusive [inhibitor, full curve, poor fit]"}, {"smiles": "O=C(CCCO)NNc1c2ccccc2nc2ccccc12", "Potency": "active: 1.47 µM"}, {"smiles": "C/C(=N\\NC(=O)COc1ccccc1-c1ccccc1)c1cccnc1", "Potency": "inconclusive [inhibitor, partial curve, poor fit]"}, {"smiles": "Cc1cccc(-n2nnc(C(=O)NCc3ccccc3)c2N)c1", "activity change, negative = inhibition": "inactive: 18.5%"}, {"smiles": "O=C(CSc1nnnn1-c1ccccc1)NCC1(N2CCOCC2)CCCCC1", "Potency": "inconclusive [inhibitor, single point]"}, {"smiles": "CC(Oc1cc2oc(=O)c3c(c2cc1Cl)CCC3)C(=O)NCc1ccccn1", "note": "(configuration not stated)", "activity change, negative = inhibition": "inactive: 24.6%"}, {"smiles": "CCC1(c2ccc(F)cc2)NC(=O)N(CC(=O)NC2CC2)C1=O", "note": "(configuration not stated)", "Potency": "inconclusive [inhibitor, partial curve, poor fit]"}, {"smiles": "COc1ccc(N2C(=O)C(CC(=O)Nc3ccccc3)N(CCc3ccc(OC)c(OC)c3)C2=O)cc1", "note": "(configuration not stated)", "activity change, negative = inhibition": "inactive: -12.3%"}, {"smiles": "COc1ccccc1-c1c(C)c(C)nc(N)c1C#N", "activity change, negative = inhibition": "inactive: 0.17%"}, {"smiles": "COc1ccccc1-n1c(N)c(C(=O)NCC2CCCO2)c2nc3ccccc3nc21", "note": "(configuration not stated)", "Potency": "inconclusive [inhibitor, partial curve]"}, {"smiles": "CCS(=O)(=O)c1ccc2oc(SCC(=O)c3ccco3)nc2c1", "Potency": "inconclusive [inhibitor, partial curve, poor fit]"}, {"smiles": "CCC(CC)C(=O)N1N=C(c2ccc(NS(C)(=O)=O)cc2)CC1c1ccccc1", "note": "(configuration not stated)", "Potency": "inconclusive [inhibitor, partial curve]"}, {"smiles": "C=CCn1c(CSc2nc3ccccc3s2)nnc1SCC(=O)NCc1cccnc1", "Potency": "inconclusive [inhibitor, single point]"}, {"smiles": "CC(=O)N1c2ccc(S(=O)(=O)N3CCC(C(=O)NCc4ccc(C)cc4)CC3)cc2CC1C", "note": "(configuration not stated)", "Potency": "inconclusive [inhibitor, partial curve, poor fit]"}, {"smiles": "Cn1c(-c2cc3c(C(F)(F)F)nn(C)c3s2)n[nH]c1=S", "Potency": "inconclusive [inhibitor, single point]"}, {"smiles": "O=C(Nc1ccc(CSc2ccccc2)cc1)c1ccc(CN2CCOCC2)cc1", "Potency": "inconclusive [inhibitor, partial curve]"}, {"smiles": "Cc1ccc(C)c(COC(=O)CCN=C2NS(=O)(=O)c3ccccc32)c1", "activity change, negative = inhibition": "inactive: -11.6%"}, {"smiles": "COc1cc2nc(SCc3ccc(F)cc3)n(Cc3cccs3)c(=N)c2cc1OC", "Potency": "inconclusive [inhibitor, single point]"}, {"smiles": "COc1ccc(-c2csc3ncn(-c4ccccc4OC)c(=O)c23)cc1OC", "Potency": "inconclusive [inhibitor, partial curve, poor fit]"}, {"smiles": "COc1ccc(OC)c(NS(=O)(=O)c2ccc3c(c2)C(C)(C)C(=O)N3C)c1", "Potency": "inconclusive [inhibitor, single point]"}, {"smiles": "COc1cc(CN2CCC(C(=O)N3CCN(c4ccccc4F)CC3)CC2)ccc1O", "Potency": "inconclusive [inhibitor, single point]"}, {"smiles": "CCOC(=O)Nc1ccc(OC)c([N+](=O)[O-])c1", "Potency": "active: 14.7 µM"}, {"smiles": "CCC(C)NC(=O)CSC1=Nc2ccccc2C2=NC(CCC(=O)NCc3ccco3)C(=O)N12", "note": "(configuration not stated)", "activity change, negative = inhibition": "inactive: 0.708%"}, {"smiles": "COc1cccc(CN(C)C(=O)c2cccc(S(=O)(=O)NCc3ccccc3)c2)c1OC", "Potency": "inconclusive [inhibitor, single point]"}, {"smiles": "CCN(CC)S(=O)(=O)c1ccc(O)c(NC(=O)c2ccc(N3CCOCC3)c([N+](=O)[O-])c2)c1", "Potency": "inconclusive [inhibitor, partial curve]"}, {"smiles": "COc1ccc(Nc2ncnc3sc(-c4ccccc4)cc23)cc1", "Potency": "inconclusive [inhibitor, partial curve, poor fit]"}, {"smiles": "O=C1N/C(=N\\N=C\\c2cccs2)SC1Cc1cccc(Cl)c1Cl", "note": "(configuration not stated)", "Potency": "inconclusive [inhibitor, partial curve, poor fit]"}, {"smiles": "Cc1nc2ccccc2c(=O)n1-c1ccc(F)c(NC(=O)c2cccs2)c1", "Potency": "inconclusive [inhibitor, single point]"}, {"smiles": "COC(=O)c1sccc1N/N=C/c1ccc(OC)c(OC)c1OC", "activity change, negative = inhibition": "inactive: 65.2%"}, {"smiles": "COc1ccccc1N1CCN(C(=O)c2cc(C(=O)N3CCN(c4ccccc4OC)CC3)cc([N+](=O)[O-])c2)CC1", "Potency": "inconclusive [inhibitor, full curve, poor fit]"}, {"smiles": "COC(=O)c1cccc(Cn2c(Cl)c(/C=N/Nc3ccccc3C)sc2=O)c1", "Potency": "inconclusive [inhibitor, single point]"}]}]}
